Test results published in the supplement of paper PMC11383711.
Some of the results follow. Binding of human antibodies (heavy:light variable regions, tested as scFv in one mRNA-display pool) to influenza hemagglutinin, with or without the stem antibody CR9114 bound first. Score = (mean enrichment − median) / interquartile range of that screen; higher = more enriched, 0 = typical non-binder. Active = above the paper's cut-off per screen: stems 28; unblocked H1 Solomon Islands 5, H1 Michigan 3, H3 5, H5 19, H7 2.85, both B 5; blocked 9, 7, H5 10, H7 10, B Phuket 10, B Lee 11.5. Scores are scaled within each screen and are no affinities; replicates correlate at about 0.6 to 0.9, and antibodies rare in the pool are noisier.

Key:
Experiment in all cases: mRNA display binding score; higher = more enriched on the antigen
[1] = molecular target: Influenza A H1N1 A/Michigan/45/2015 hemagglutinin ectodomain
Method: (§1)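 A pool of natively paired antibodies, displayed as scFv on mRNA, was selected once on antigen-coated beads and sequenced before and after; two replicates.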

[2] = molecular target: Influenza A H1N1 A/Solomon Islands/3/2006 hemagglutinin ectodomain
Method: as §1

[3] = molecular target: Influenza A H3N2 A/Singapore/INFIMH-16-0019/2016 hemagglutinin ectodomain; conditions: antigen blocked with: nothing
Method: as §1

[4] = molecular target: Influenza A H5N1 A/Qinghai/1A/2005 hemagglutinin ectodomain
Method: as §1

[5] = molecular target: Influenza A H7N9 A/Shanghai/2/2013 hemagglutinin ectodomain
Method: as §1

[6] = molecular target: Influenza B/Lee/1940 hemagglutinin ectodomain
Method: as §1

[7] = molecular target: Influenza B/Phuket/3073/2013 hemagglutinin ectodomain
Method: as §1

[8] = antigen blocked with: 2 µM CR9114 IgG

Measured: mRNA display binding score

B1: W85-3G10 (protein)
chain 1: EVQLVDSGGGVVRPGRSLRLSCAASGFTFSSYAMHWVRQAPGRGLEWVTFISHDGSNVYYADSVTGRFTISRDNSKNTLYLQMNSLRVEDTAVYYCARDYCSTSSCYVDYWGQGTLVTVSS
chain 2: NFMLTQPHSVSESPGKTVTISCTGSSGSIAYNYVQWYQQRPGSAPTTVIYEDNHRPSGVPDRFSGSVDSSSNSASLTISGLKTEDEADYYCQSYDSSNHVVFGGGTTADRP
inactive: [1]; [8] 0.124 | [1]; antigen blocked with: nothing 1.43 | [2]; [8] 0.365 | [2]; antigen blocked with: nothing -0.0911 | [3] -0.000737 | [4]; [8] 1.34 | [4]; antigen blocked with: nothing 0.986 | [5]; [8] 0.583 | [5]; antigen blocked with: nothing 1.64 | [6]; [8] -1.35 | [6]; antigen blocked with: nothing -0.251 | [7]; [8] 0.153 | [7]; antigen blocked with: nothing 0.115

B2: K77-2C09 (protein)
chain 1: QVQLVQSGAEVKKPGASVKVSCKASGYTFNKYYMHWVRQAPGQGLEWMGVINPSGGSTTYAQKFQGRVTMTRDTSTSTVFMDLSSLRSEDTAVYYCATDIAIVPTAPFYGMDGWGQGTAVTVSS
chain 2: DIVMTQSPLSLPVTPGEPASISCRSSQSLLHSDGHNCLGWYLRKPGQPPQLLIYLGSFRASGVPDRFSGSGSGTDFTLKISRVEAEDVGVYYCMQTLQTPLTFGGGTKVEIK
inactive: [1]; [8] -0.225 | [1]; antigen blocked with: nothing 0.17 | [2]; [8] -0.453 | [2]; antigen blocked with: nothing 0.302 | [3] -0.231 | [4]; [8] 1.21 | [4]; antigen blocked with: nothing 6.31 | [5]; [8] -1.27 | [5]; antigen blocked with: nothing -0.332 | [6]; [8] 0.723
active: [6]; antigen blocked with: nothing 5.62 | [7]; [8] 40.2 | [7]; antigen blocked with: nothing 38.8

B3: W85-1E02 (protein)
chain 1: EVQLVESGGGVVQSGRSLRLSCAASGFTFSSYALHWVRQAPGKGLEWVAVISYDASEKYYADSVKGRFTISRDKSKKTLYLQMNSLRAEDTAVYYCARSHFYYDSGDYWGQGTLVTVSS
chain 2: DIQMTQSPSTLSASVGDKVTITCRASQSINRWLAWYQQKPGKAPKLLIYRASSLESGVPSRFSGSGSGTEFTLTISSLQPDDFATYFCQHYEGYSWTFGQGTKVDIK
inactive: [1]; [8] 1.1 | [1]; antigen blocked with: nothing 1.61 | [2]; [8] 2.11 | [2]; antigen blocked with: nothing 1.12 | [3] 1.64 | [4]; [8] 1.22 | [4]; antigen blocked with: nothing 0.518 | [5]; [8] 1.61 | [5]; antigen blocked with: nothing 2.52 | [6]; [8] 0.116 | [6]; antigen blocked with: nothing 0.0713 | [7]; [8] 1.03 | [7]; antigen blocked with: nothing 0.166

B4: R95-2A07 (protein)
chain 1: QVQLVQSGSEVKKPGASVKVFCKASGYTFFNHYIHWVRQAPGQRLEWLGWVNTGNGDTKYAQKFQGRVTITRDTAARAAYMELSSLMSEDTAIYYCAREGTLGWGWDLRNEFYFMDVWGTGTTVIVSS
chain 2: QSALTQPPSVSGAPGQRVTISCTGSSSNIGAGFEVHWYQQLPGSAPKLLISGSGARPSGVPDRFSASKSATSASLAITGLQAEDEADYYCQSYDSTLSGVLFGGGTKLTVL
inactive: [1]; [8] 0.454 | [1]; antigen blocked with: nothing 0.711 | [2]; [8] -0.215 | [2]; antigen blocked with: nothing 0.449 | [3] -0.178 | [4]; [8] -0.393 | [4]; antigen blocked with: nothing 2.69 | [5]; [8] -0.601 | [5]; antigen blocked with: nothing -0.0496 | [6]; [8] 3.77 | [7]; [8] -0.135
active: [6]; antigen blocked with: nothing 28.7 | [7]; antigen blocked with: nothing 9.46

B5: C1-3E05 (protein)
chain 1: VQLQESGPGLVTPSETLSLTCTVSGGSISSTIHYWGWIRQPPGKGLEWIGSVYYDGMTYHNPSLKSRVTMSADTSKNQFSLELSSVTAADTAVYFCARQQEGYYYYYGMDVWGQGTTVTVSS
chain 2: EIVLTQSPGTLSLSPGERATLSCRASQSVNSNYLAWYQQKPGQAPRLLIYGASSRATGIPDRFSGSGSGTDFTLTISRLEPEDFAVYYCQQYTSPGFTFGPGTKVDIK
inactive: [1]; [8] 0.0142 | [1]; antigen blocked with: nothing -0.445 | [2]; [8] -0.18 | [2]; antigen blocked with: nothing -0.358 | [3] -0.402 | [4]; [8] 0.526 | [4]; antigen blocked with: nothing 2.64 | [5]; [8] -0.136 | [5]; antigen blocked with: nothing -0.282 | [6]; [8] 0.0343 | [6]; antigen blocked with: nothing 0.13
active: [7]; [8] 36.1 | [7]; antigen blocked with: nothing 36.7

B6: R95-2E02 (protein)
chain 1: EVQLVESGGGLIQPGGSLRLSCTASGFTFHDHAMHWVRQPPGKGLEWVSGISWNGGDMKYGGSVKGRFITSRDNGKKSLYLQMNSLRPEDTAVYYCAKEISVRYYDFWSGYLGKPRGMDVWGQGTTVTVSS
chain 2: QSVLTQPPAASGTPGQTVNITCSGSPSNIGSETVNWYQRLPGTAPKLLIYSSNQRPSGVPDRFSGSKYGTSASLVISGLQSEDEGDYYCAVWDESRNGFYVFGTGTKVTVL
inactive: [1]; [8] -0.301 | [1]; antigen blocked with: nothing -0.337 | [2]; [8] -0.598 | [2]; antigen blocked with: nothing -0.234 | [3] -0.111 | [4]; [8] -0.57 | [4]; antigen blocked with: nothing -0.0991 | [5]; [8] -0.708 | [5]; antigen blocked with: nothing -0.383 | [6]; [8] -0.136 | [6]; antigen blocked with: nothing -0.416 | [7]; [8] -0.547 | [7]; antigen blocked with: nothing -0.336
